# Laboratory results from PubChem BioAssay AID1768 (National Center for Advancing Translational Sciences (NCATS), 2009).
# The whole screen tested about 270,000 compounds, of which about 620 (0.23%) were called active. Inconclusive means that the source gave no clear call. Such entries were picked first, then a sample of the others. The call rests on the fitted dose curve; in most records, active means well fitted inhibition curve with a large enough effect in the polarisation, with a control signal flat (not every such curve was filed as active); inconclusive means small, poorly fitted or top-dose-only effect, or effect the other way, or a change in a side signal; inactive means no such curve, though single readings can be large or run the other way; the % refers to the polarisation. Where the call is inconclusive, the potency comes from a doubtful curve fit. “Side channel” marks fits to a control or component signal instead of the main read-out.
# Target: Menin (Homo sapiens) (UniProt O00255)
# Experiment: qHTS Assay for Inhibitors Targeting the Menin-MLL Interaction in MLL Related Leukemias: Competition With Texas Red Labeled MLL-derived Mutant Peptide; on FP activity change, negative = inhibition: % of control where 0% means no effect
# Conditions: fluorescence polarization; FP activity change, negative = inhibition: at 61.6 µM (top of the series)
# Potency means the concentration at half of the fitted maximal effect; tags describe the fitted curve by direction and shape or compound fluorescence and quenching.
# UniProt O00255, sequence (O00255 whole entry, looked up): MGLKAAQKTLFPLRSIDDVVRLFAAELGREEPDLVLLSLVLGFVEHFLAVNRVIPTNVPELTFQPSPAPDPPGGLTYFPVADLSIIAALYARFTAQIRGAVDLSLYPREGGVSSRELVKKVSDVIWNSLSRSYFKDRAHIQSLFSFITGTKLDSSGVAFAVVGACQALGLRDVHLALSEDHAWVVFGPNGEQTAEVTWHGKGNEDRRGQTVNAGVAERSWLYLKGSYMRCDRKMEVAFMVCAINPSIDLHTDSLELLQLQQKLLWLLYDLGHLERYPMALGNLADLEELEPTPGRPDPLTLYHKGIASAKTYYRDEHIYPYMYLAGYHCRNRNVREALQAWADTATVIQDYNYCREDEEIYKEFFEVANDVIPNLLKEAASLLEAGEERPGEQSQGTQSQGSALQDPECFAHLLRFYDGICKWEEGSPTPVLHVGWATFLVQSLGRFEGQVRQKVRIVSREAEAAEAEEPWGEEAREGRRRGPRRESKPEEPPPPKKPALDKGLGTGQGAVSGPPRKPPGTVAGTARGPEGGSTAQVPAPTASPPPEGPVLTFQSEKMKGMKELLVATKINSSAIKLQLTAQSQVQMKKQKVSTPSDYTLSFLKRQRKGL
SMILES,Potency,"FP activity change, negative = inhibition"
CCc1ccc(NC(=O)C2=CC(c3cccs3)=NS(=O)(=O)N2C)cc1,"inconclusive: 17.8 µM [quencher, side channel, partial curve]",
CC(NC(=O)Nc1ccc([N+](=O)[O-])cc1)C(c1ccccc1)N1CCOCC1 (configuration not stated),"inconclusive: 14.1 µM [quencher, side channel, partial curve]",
CCOc1ccc(-n2c(O)c(/C=N/NC(=O)C3COc4ccccc4O3)c3ccccc3c2=O)cc1 (configuration not stated),"inconclusive: 25.1 µM [quencher, partial curve]",
C#CCOCCOCCOCCNc1nc(N2CCN(C(=O)[C@H](CCC(=O)O)n3cc(C(N)CO)nn3)CC2)nc(N2CCN(C(=O)[C@H](CCC(=O)O)n3cc(C(N)[C@H](C)CC)nn3)CC2)n1 (some centres not stated),"inconclusive: 2.82 µM [inhibitor, full curve]",
O=C(Nc1ccc(N2CCCC2)cc1)c1ccc2ccccc2c1,"inconclusive: 11.2 µM [quencher, side channel, partial curve]",
O=C(Nc1ccc(C(O)(C(F)(F)F)C(F)(F)F)cc1)c1ccc(Cl)c([N+](=O)[O-])c1,"inconclusive: 12.6 µM [quencher, side channel, partial curve]",
O=C(Cn1nnc(-c2ccc([N+](=O)[O-])cc2)n1)NNC(=O)c1ccccc1,"inconclusive: 39.8 µM [quencher, single point]",
Clc1ccc(-c2cn3cc(Cl)ccc3n2)cc1,inactive,
O=C(Nc1ccc2c(c1)OCO2)c1ccc(Br)c(S(=O)(=O)N2CCCC2)c1,"inconclusive: 17.8 µM [quencher, side channel, partial curve]",
C=C(C)C(=O)OCCOC(=O)C(=C)C,inactive,
Cn1c(CNc2ccc(Cl)cc2)nnc1SCc1ccccc1,"inconclusive: 39.8 µM [fluorescent, side channel, single point]",
CC(C)CN(C(=O)CSc1nnc(-c2ccco2)o1)c1c(N)n(Cc2ccccc2)c(=O)[nH]c1=O,"inconclusive: 6.31 µM [fluorescent, side channel, single point]",
CCOc1ccc(-c2cc(C(=O)Nc3ccc4c(c3)OCCO4)c3ccccc3n2)cc1,"inconclusive: 28.2 µM [inhibitor, single point]",
COc1ccc(C2=Nn3c(nnc3-c3ccccn3)SC2)cc1OC,,inactive: -0.177% [at 11.7 µM]
COc1ccc(-c2[nH]ncc2-c2ccc(Cl)cc2)c(O)c1,"inconclusive: 31.6 µM [quencher, side channel, single point]",
CCCSc1nc(N)nc(-c2cccs2)c1C#N,"inconclusive: 12.6 µM [quencher, side channel, partial curve]",
O=C(CC(=O)Nc1cccc(Cl)c1Cl)Nc1cccc(Cl)c1Cl,"inconclusive: 22.4 µM [fluorescent, side channel, partial curve]",
CC1=CC(C)(C)C(C(=O)O)C(C(=O)O)C1 (configuration not stated),inactive,
CC1(C)CC(=O)N(c2cccc(Cl)c2)C(=O)C1,"inconclusive: 4.47 µM [inhibitor, full curve, poor fit]",

SMILES,Potency,"FP activity change, negative = inhibition"
CN(C(=O)Cn1cccc1C1=NC(c2ccccc2)CO1)c1ccccc1 (configuration not stated),"inconclusive: 14.1 µM [fluorescent, side channel, partial curve]",
O=[N+]([O-])c1ccccc1S(=O)(=O)NC1CCCC1,"inconclusive: 14.1 µM [inhibitor, partial curve]",
CCCC1=NN2C(=N)/C(=C\c3ccc(SCc4ccco4)o3)C(=O)N=C2S1,"inconclusive: 17.8 µM [fluorescent, side channel, partial curve]",
COc1ccccc1CNCC(O)(c1ccc(F)cc1)c1ccc(F)cc1,"inconclusive: 14.1 µM [fluorescent, side channel, partial curve]",
CCCCC#CC1C=CC(OC(C)=O)C(COC(C)=O)O1 (configuration not stated),,inactive: -5.14% [at 11.7 µM]
CCCS(=O)(=O)c1c(S(=O)(=O)CCC)c2c(C)cccn2c1C(N)=O,"inconclusive: 2.51 µM [inhibitor, full curve, poor fit]",
COc1ccccc1N1CCN(C(=O)CSc2ncnc3scc(-c4ccccc4)c23)CC1,"inconclusive: 11.2 µM [inhibitor, partial curve]",
O=C(Nc1ccc(Cl)cc1)c1ccc(-n2cccn2)c([N+](=O)[O-])c1,"inconclusive: 25.1 µM [quencher, side channel, partial curve]",
O=C(Nc1ccc(Nc2ccccc2)cc1)c1ccc(Br)cc1,"inconclusive: 12.6 µM [quencher, side channel, partial curve]",
Cc1ccc(SCC(=O)Nc2cc([N+](=O)[O-])ccc2O)cc1,"inconclusive: 39.8 µM [quencher, single point]",
CC1=Nc2ccccc2/C1=C\c1sc(Nc2ccc(C)cc2)nc1O,"inconclusive: 39.8 µM [quencher, side channel, single point]",
CCCNC(=O)CSc1nc(-c2cccs2)cc(C(F)(F)F)n1,inactive,
O=C(COc1nncc2ccccc12)Nc1ccc(Br)cc1F,"inconclusive: 0.631 µM [inhibitor, full curve, poor fit]",
Cc1ccc(C(=O)N/C(=C/c2ccco2)C(=O)N2CCC(C)CC2)cc1,"inconclusive: 14.1 µM [fluorescent, side channel, partial curve]",
O=C(CSc1nnnn1C1CCCCC1)N1CCN(C(=O)c2ccco2)CC1,"inconclusive: 12.6 µM [quencher, side channel, partial curve]",
Cc1ccc(C2(CCN)CCOC(C(C)C)C2)cc1 (configuration not stated),inactive,
Cc1ccc(C#CC[N+](C)(C)CC#Cc2ccccc2)cc1,"inconclusive: 28.2 µM [inhibitor, single point]",
CCc1cc(CNC(=O)c2ccc(OC3CCN(CCc4ccccc4)CC3)cc2)on1,"inconclusive: 17.8 µM [inhibitor, single point]",
Cn1nnnc1SCC(=O)NCc1cccc(C(=O)O)c1,"inconclusive: 0.631 µM [inhibitor, full curve]",

SMILES,Potency,"FP activity change, negative = inhibition"
COc1ccccc1C(=O)Nc1ncc2c(n1)CC(c1ccco1)CC2=O (configuration not stated),"inconclusive: 28.2 µM [quencher, side channel, single point]",
O=[N+]([O-])c1cc(Cl)ccc1N1CCN(c2ccccc2O)CC1,"inconclusive: 11.2 µM [quencher, side channel, partial curve]",
CCCOc1ccc(CCN2CCC(=O)NC2=O)cc1C,"inconclusive: 44.7 µM [inhibitor, partial curve]",
Cc1cc(NC(=O)CN2C(=O)c3ccccc3S2(=O)=O)no1,"inconclusive: 1.41 µM [inhibitor, partial curve]",
Cc1cccc(NC(=O)c2ccc(C(=O)Nc3cccc(C)c3)nc2)c1,"inconclusive: 8.91 µM [quencher, side channel, single point]",
CCCNC(=O)c1nnsc1Sc1ccc(Cl)cc1,"inconclusive: 25.1 µM [fluorescent, side channel, single point]",
Cn1cnnc1Sc1ccc(C(=O)OCC(=O)Nc2cc(Cl)cc(Cl)c2)cc1[N+](=O)[O-],"inconclusive: 15.8 µM [quencher, side channel, partial curve]",
COc1cc(OC)cc(-c2nc(-c3ccc(Br)cc3)no2)c1,"inconclusive: 3.98 µM [inhibitor, single point]",
CC1=CCC(C(=O)O)(C(=O)N/N=C/c2cccs2)C(c2ccc([N+](=O)[O-])cc2)C1 (configuration not stated),"inconclusive: 0.708 µM [inhibitor, partial curve, poor fit]",
O=C(N/N=C/c1ccco1)c1ccc(NC(=O)c2ccccc2Cl)cc1,"inconclusive: 39.8 µM [inhibitor, single point]",
C#CCOCCOCCOCCNc1nc(N2CCN(C(=O)[C@H]([C@@H](C)CC)n3cc([C@@H](N)Cc4ccc(O)cc4)nn3)CC2)nc(N2CCN(C(=O)[C@H](Cc3ccc(O)cc3)n3cc([C@@H](N)C(C)CC)nn3)CC2)n1 (some centres not stated),"inconclusive: 1.78 µM [fluorescent, side channel, full curve]",
CCN(CC)CCN(C(=O)c1ccc(S(=O)(=O)N(C)C2CCCCC2)cc1)c1nc2c(C)cccc2s1,"inconclusive: 3.55 µM [fluorescent, side channel, full curve]",
COc1ccc(C(=O)O)cc1NC(=S)NC(=O)CSc1ccc(Cl)cc1,"inconclusive: 28.2 µM [quencher, side channel, single point]",
Nc1nc(-c2ccc(Cl)cc2)cc(C(F)(F)F)n1,inactive,
O=C(CCNS(=O)(=O)c1ccc(Br)cc1)NCc1cccs1,"inconclusive: 39.8 µM [fluorescent, side channel, single point]",
Cc1ccc(C)c(/C(O)=C2/C(=O)C(=O)N(CCN3CCOCC3)C2c2ccco2)c1 (configuration not stated),"inconclusive: 3.16 µM [inhibitor, partial curve]",
COc1ccc(N=Cc2c(O)[nH]c3ccccc23)cc1,"inconclusive: 14.1 µM [quencher, side channel, partial curve]",
O=C(COC(=O)CCC(=O)c1cccs1)Nc1ccc(Cl)cn1,"inconclusive: 17.8 µM [quencher, side channel, partial curve]",
COc1ccc(C(=O)c2ccc(CC#N)s2)cc1,"inconclusive: 28.2 µM [quencher, side channel, partial curve]",
